# From PubChem BioAssay AID1346428 (National Center for Advancing Translational Sciences (NCATS), 2018)
# The campaign covered roughly 48,000 compounds. About 1,200 (2.5%) were called active. About 2% were inconclusive and are not listed.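 How the source made its calls: active means activation of at least 60% and not above a set upper limit (about 1 call in 100 departs from these limits); inconclusive means activation of 40% to 60%, or above that upper limit; inactive means activation under 40%.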 The list shows a part of the results.
# Molecular target: Probable G-protein coupled receptor 32 (Homo sapiens) (UniProt O75388)
# Assay: qHTS for Agonists of Human Resolvin D1 Receptor DRV1
# Conditions: CHO-K1 GPR32 beta-arrestin PathHunter luminescence, 90 min; at 76.9 µM; stronger effect = higher value; zero percent set by DMSO-only wells
# Method in brief: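 PathHunter enzyme-fragment complementation, CHO-K1 GPR32 stable line; 2,500 cells/well, overnight attach; cpd 90 min 37 °C 5% CO2; detection reagent 1 h RT; chemiluminescence. DMSO = EC0.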
# UniProt O75388, sequence (O75388 whole entry, looked up): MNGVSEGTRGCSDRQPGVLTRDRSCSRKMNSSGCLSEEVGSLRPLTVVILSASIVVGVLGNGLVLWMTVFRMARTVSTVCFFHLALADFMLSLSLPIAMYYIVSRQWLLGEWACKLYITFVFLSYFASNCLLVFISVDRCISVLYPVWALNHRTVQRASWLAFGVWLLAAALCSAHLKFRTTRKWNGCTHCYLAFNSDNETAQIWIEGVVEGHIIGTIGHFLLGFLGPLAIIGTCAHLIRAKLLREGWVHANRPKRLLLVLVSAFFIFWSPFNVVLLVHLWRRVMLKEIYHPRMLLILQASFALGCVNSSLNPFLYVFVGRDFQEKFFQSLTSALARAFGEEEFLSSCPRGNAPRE
row,SMILES,activation
1,CC1CN(C(=O)N2CCC(C(=O)NCCC3=CCCCC3)CC2)c2cc(Cl)ccc2O1 (stereo not drawn),inactive: -2.03%
2,Cc1ccc(C2CC(=O)N(Cc3ccccc3)c3c2c(C)nn3-c2nc(C)cc(C)n2)cc1 (stereo not drawn),inactive: -7.18%
3,O=C(C1CCN(S(=O)(=O)Cc2ccccc2)CC1)N1CCN(c2ccc(F)cc2)CC1,inactive: -10.6%
4,Cc1ccc2c(=O)cc(C(=O)Nc3sc4c(c3C(N)=O)CCCC4)oc2c1,inactive: 12.6%
5,Cc1ccc(C)n1-c1c(C(=O)NCCCN2CCN(c3ccc(F)cc3)CC2)sc2ncccc12,inactive: -13.7%
6,Cc1ccc(C)c(CN2C(=O)C3(c4ccccc42)N(c2cccc(C(F)(F)F)c2)C(=O)CS3(=O)=O)c1 (stereo not drawn),inactive: 11.7%
7,COc1ccc(C2C(=O)N(C3CCCCC3)CC(=O)N2CCc2ccc(OC)c(OC)c2)cc1 (stereo not drawn),inactive: -18.9%
8,COc1cc(NC(=O)c2nc3ccccc3nc2C)cc(OC)c1OC,inactive: 7.08%
9,CCOC(=O)c1cc(C)n(CC2CCC(C(=O)Nc3ccc(OCC)cc3)CC2)c1C (stereo not drawn),inactive: -17.5%
10,Cc1ccc2oc(-c3cc(NC(=O)c4ccc5c(c4)OCCO5)cc(C)c3O)nc2c1,inactive: -3.24%
11,COc1ccc(NC(=O)CCn2nc(-c3ccccc3OC)c3c(C)cc(C)nc32)cc1,inactive: -17.7%
12,CCC(C(=O)N1CCN(c2ccccc2F)CC1)n1nc(C)c2sc3ccccc3c2c1=O (stereo not drawn),inactive: -13.8%
13,COc1cc(CN(C(=O)c2cccc(Cl)c2)c2ccccn2)cc(OC)c1OC,inactive: 29%
14,Cc1ccc(-n2nc(C(=O)Nc3ccc(Cl)cn3)c3c4ccccc4n(C)c3c2=O)cc1,inactive: 21.3%
15,CC1=C(C(=O)OCC(C)C)C(c2ccc(OCc3ccccc3)cc2)N2C(=O)CCSC2=N1 (stereo not drawn),inactive: -25.7%
16,Cc1ccc(Cl)cc1N1CCN(C(=O)c2cccn3c(=O)c4cc(Cl)ccc4nc23)CC1,inactive: -7.33%
17,Cc1ccccc1OCc1ccc(-c2nc(C#N)c(N3CCN(C)CC3)o2)o1,inactive: -20.9%
18,CCCCCCn1c(=O)c2c(ncn2C)n(C)c1=O,inactive: 47.1%
19,Cc1cccc(NC(=O)c2sc3nc4c(cc3c2N)CN(Cc2ccccc2)CC4)c1,inactive: -9.99%
20,COc1ccccc1NC(=O)c1oc2ccccc2c1NC(=O)c1ccccc1C(F)(F)F,inactive: -10.8%
21,CCOc1ccccc1NC(=O)C(C)Sc1nc(-c2ccccc2)c(C#N)c(=O)[nH]1 (stereo not drawn),inactive: 0.722%

row,SMILES,activation
1,CCOc1ccc(/C=C/c2nc(C#N)c(NC(C)CC)o2)cc1 (stereo not drawn),inactive: -22.6%
2,CCc1cccc(NC(=O)c2cnc(SC)nc2-c2ccccc2)c1,inactive: -3.17%
3,Cc1nc2sc(C(=O)Nc3ccc(F)cc3)c(N)c2c(-c2ccc(Br)cc2)c1C(=O)Nc1ccc(Cl)cc1,inactive: 39.4%
4,O=C(Nc1ccc(NC(=O)c2cccs2)cc1)c1cccc(Br)c1,inactive: -14.1%
5,Cc1ccc(C)c(Cn2c(=O)n(Cc3ccc4c(c3)OCO4)c(=O)c3oc4ccccc4c32)c1,inactive: 4.8%
6,CCCCOc1ccc(C(=O)NCCc2sc(-c3cccc(F)c3)nc2C)cc1,inactive: -12.9%
7,COC(=O)c1ccc(NC(=O)CC2C(=O)N(c3ccc(F)cc3)C(=O)N2Cc2ccc(OC)cc2)cc1 (stereo not drawn),inactive: -15.8%
8,Cc1cc2nc(-c3ccc(OCc4ccc(F)cc4)cc3)cc(C(F)(F)F)n2n1,inactive: 22.9%
9,COc1ccc(N2CCN(S(=O)(=O)c3ccc(OC)c(-c4noc(C)n4)c3)CC2)cc1,inactive: -18.7%
10,O=C(Cn1ncc2c3ccccc3n(Cc3ccc(Cl)cc3)c2c1=O)NCc1cccs1,inactive: -5.93%
11,CCOc1ccc(Sc2cc(C(=O)NC(C)CC)c3ccccc3n2)cc1 (stereo not drawn),inactive: 3.62%
12,COCCCNC(=O)CSc1nc2ccccc2c(=O)n1Cc1ccco1,inactive: -5.28%
13,Cc1ccc(NC(=O)CN2C(=O)COc3ccc(S(=O)(=O)N4CCCCCC4)cc32)cc1C,inactive: -22%
14,CCOc1ccc(CCNC(=O)c2c(C)oc3ncnc(N4CCOCC4)c23)cc1,inactive: 9.77%
15,COc1ccc(C(=O)Nc2ccc(OCc3cc(=O)n4ccccc4n3)cc2)cc1,inactive: -0.434%
16,COc1ccc(CNC(=O)c2ccc3[nH]c(C)c(C)c3c2)c(OC)c1,inactive: -3.61%
17,N#C/C(=C\c1ccc(-c2ccc(F)cc2F)o1)c1nc2ccccc2[nH]1,inactive: -6.96%
18,CCOc1cccc(CNc2ccc(O)cc2)c1OCc1ccccc1Cl,inactive: -13.8%
19,CCc1nnc2c(NCCc3ccc(OC)c(OC)c3)nc3ccccc3n12,inactive: 7%
20,CCN(CC)CCOC(=O)C(c1ccccc1)C1CCCCC1 (stereo not drawn),inactive: -5.75%
21,CN(C)c1cc2c(Nc3ccc4c(cnn4Cc4ccccc4)c3)ncnc2cn1,inactive: 33.1%

row,SMILES,activation
1,Cc1ccc(C)c(N2CCN(C(=O)CCS(=O)(=O)c3ccc4c(c3)CC(=O)N4C)CC2)c1,inactive: 0%
2,COc1ccc(-c2onc(C)c2C)cc1S(=O)(=O)NCc1ccc(Br)cc1,inactive: -6.96%
3,CCc1ccc(NC(=O)CC2C(=O)N(c3ccc(Cl)cc3)C(=O)N2Cc2cccs2)cc1 (stereo not drawn),inactive: -14.8%
4,OC[C@H]1O[C@@H](n2cnc3c(=S)nc[nH]c32)[C@H](O)[C@@H]1O,inactive: -86.9%
5,CCOc1ccc(NS(=O)(=O)c2ccc3c(c2)CCN3C(C)=O)cc1,inactive: 3.01%
6,COc1ccc(-c2nnc(SCC(=O)Nc3ccc(C(C)=O)cc3)nc2-c2ccc(OC)cc2)cc1,inactive: -22.5%
7,COc1cccc(C2CC(=O)Nc3c2c(=O)n(C)c2ncnn32)c1OC (stereo not drawn),inactive: 9.19%
8,COc1ccc(OC)c(S(=O)(=O)Nc2cc3c(C(C)=O)c(C)oc3c3ccccc23)c1,inactive: -1.37%
9,COC(=O)c1c(NC(=O)COc2cc(C)c(Cl)c(C)c2)sc2c1CCCC2,inactive: 14.4%
10,CC(Oc1ccc(F)cc1)C(=O)Nc1cc(-c2ccc(F)c(F)c2)no1 (stereo not drawn),inactive: 9.59%
11,Cc1ccc(S(=O)(=O)NCC2CCC(C(=O)N(C)Cc3ccccc3)CC2)cc1 (stereo not drawn),inactive: -9.89%
12,Cc1ccc(OCC(=O)N(Cc2ccco2)C2CCS(=O)(=O)C2)cc1 (stereo not drawn),inactive: -5.03%
13,CCN(CC)C(=O)Cn1c(SCCOc2ccc(Cl)cc2)nc2ccccc21,inactive: 3.46%
14,CCCc1nn2c(=O)cc(COc3ccc(/C=C(\C#N)C(=O)Nc4ccc(F)cc4)cc3)nc2s1,inactive: -2.23%
15,COc1ccc(NC(=O)CSc2nc(-c3ccco3)cc(C(F)(F)F)n2)c(OC)c1,inactive: -8.49%
16,CCCCN(C)C(=O)C1CCC(CNS(=O)(=O)c2ccc3c(c2)CC(C)N3C(C)=O)CC1 (stereo not drawn),inactive: -14.6%
17,O=C(CCS(=O)(=O)c1cc2c(cc1Cl)NC(=O)CO2)NCCc1ccc(Cl)cc1,inactive: -2.34%
18,CC(=O)N1c2ccccc2C(=O)C1N1CCN(c2ccc(F)cc2)CC1 (stereo not drawn),inactive: -41.6%
19,COc1ccc(NC(=O)c2ccc(CNS(=O)(=O)c3ccc4c(c3)C(C)(C)C(=O)N4C)cc2)cc1,inactive: 2.35%
20,COc1cccc(CNC(=O)C2CCCN(c3ncnc4onc(-c5ccc(F)cc5)c34)C2)c1 (stereo not drawn),inactive: -6.3%
21,CC(C)OCCCNC(=O)CN1C(=O)CSc2ccc(S(=O)(=O)N3CCCCC3)cc21,inactive: 0.731%

row,SMILES,activation
1,Cc1c(C)n(Cc2ccccc2)c2ccc(C(=O)NCCc3ccccc3Cl)cc12,inactive: -21.2%
2,COc1cccc(-n2c(=O)c3c(C)c(C(=O)N(C)C)sc3n(CC(=O)Nc3ccc(C)cc3Cl)c2=O)c1,inactive: -8.46%
3,O=C(Nc1ccc2c(c1)N(C1CCCC1)C(=O)c1ccccc1S2)c1cccc(F)c1,inactive: 14.1%
4,CC(C)Oc1ccc(CNC(=O)CCn2c(=O)c3cccn3c3ccc(F)cc32)cc1,inactive: -26.2%
5,O=C1CC(c2nc(-c3cccc(Cl)c3)no2)CN1c1ccc2c(c1)OCCO2 (stereo not drawn),inactive: -12.6%
6,Cc1ccc(Cl)cc1NCc1nnc2n1CCCCC2,inactive: 11.3%
7,O=C(NCCc1csc(-c2cccc(F)c2)n1)c1ccc(Br)o1,active: 93.8%
8,Cc1ccc(-n2nnnc2C2CCN(S(=O)(=O)c3ccc(OC(F)(F)F)cc3)CC2)cc1,inactive: -2.98%
9,CCN(C(=O)Cn1c(=O)oc2cc(S(=O)(=O)N3CCCC3)ccc21)c1cccc(C)c1,inactive: -2.99%
10,CCOc1ccccc1CNC(=O)CCc1cn(Cc2ccc(Cl)cc2)c2ccccc12,inactive: -15.6%
11,COc1cccc(C(=O)Nc2cc3cc(OC)ccc3oc2=O)c1,inactive: -9.4%
12,Cc1cc(C)c2c(n1)SCCN2C(=O)Nc1ccc(C(=O)Nc2cc(Cl)ccc2C)cc1,inactive: -18.1%
13,Cc1cc(C(=O)NCCc2ccc(Cl)cc2)c2c(C)nn(-c3cccc(F)c3)c2n1,inactive: -15.5%
14,COc1ccc(N(CC(=O)NCCc2cccc(C)c2)S(=O)(=O)c2c(C)noc2C)cc1,inactive: -6.84%
15,COC(=O)c1cc2sc(Cl)cc2n1Cc1nc(-c2ccc(OC)cc2)oc1C,inactive: -10.2%
16,Cc1ccc(Cl)cc1NC(=O)COCc1cc(-c2ccco2)on1,inactive: -23.3%
17,CCCCSCCCNC(=O)CN1C(=O)COc2ccc(S(=O)(=O)N3CCC(C)CC3)cc21,inactive: -0.192%
18,O=C(Nc1nnc(S(=O)(=O)N2CCN(c3ccc(F)cc3)CC2)s1)c1ccc(Cl)cc1,inactive: -0.647%
19,COc1ccc(C)cc1NC(=O)C(=O)NCC1(c2ccccc2)CCCC1,inactive: -16.5%
20,CC(C)(C)c1ccc(C2NC(=O)c3n[nH]c(-c4cccs4)c32)cc1 (stereo not drawn),inactive: -11.3%
